# Reference: article PMC6919601, “Identification of Plasmodium dipeptidyl aminopeptidase allosteric inhibitors by high throughput screening” (PLoS ONE, 2019)
# Screen size: about 110,000 compounds; about 230 (0.21%) showed an effect of 50% or more. Some of the results follow.
# Biological target: DPAP1 (Plasmodium falciparum, UniProt Q8IIJ9)
# Test: primary screen, percent inhibition; read by cleavage of a fluorogenic dipeptide substrate; higher = more effect of the substance
# Parameters: species or system P. falciparum D10 trophozoite lysates; single well
# 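Note: 30 min substrate incubation versus DMSO and 10 µM JCP410 controls.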
# Chain of DPAP1 (Q8IIJ9 whole entry, looked up): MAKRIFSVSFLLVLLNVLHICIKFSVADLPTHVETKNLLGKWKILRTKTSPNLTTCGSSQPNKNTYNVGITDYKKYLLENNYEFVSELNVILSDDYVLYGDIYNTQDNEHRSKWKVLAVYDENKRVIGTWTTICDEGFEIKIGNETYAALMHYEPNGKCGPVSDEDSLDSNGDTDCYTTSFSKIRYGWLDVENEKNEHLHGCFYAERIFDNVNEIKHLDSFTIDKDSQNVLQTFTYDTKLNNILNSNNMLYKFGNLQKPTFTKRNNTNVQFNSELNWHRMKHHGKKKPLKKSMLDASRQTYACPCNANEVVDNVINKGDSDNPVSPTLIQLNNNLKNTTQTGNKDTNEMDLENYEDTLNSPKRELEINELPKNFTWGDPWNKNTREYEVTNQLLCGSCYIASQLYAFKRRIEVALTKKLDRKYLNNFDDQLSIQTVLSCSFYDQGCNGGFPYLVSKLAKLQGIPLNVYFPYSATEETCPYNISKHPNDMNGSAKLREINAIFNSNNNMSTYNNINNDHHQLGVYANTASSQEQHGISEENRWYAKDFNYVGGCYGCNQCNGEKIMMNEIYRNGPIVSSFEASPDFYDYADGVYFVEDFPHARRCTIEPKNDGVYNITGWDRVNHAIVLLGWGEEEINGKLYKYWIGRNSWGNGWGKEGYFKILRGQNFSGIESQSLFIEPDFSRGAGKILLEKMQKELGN
row,Structure (SMILES),% Inhibition @ 10 uM [%]
1,Nc1ccc(NS(=O)(=O)c2ccccc2)cc1,1.9
2,O=C(NCc1ccccn1)c1cc2c(s1)-c1ccccc1S(=O)(=O)C2,-5.81
3,CC(C)C[C@H](NC(=O)c1cc([N+](=O)[O-])cs1)C(=O)NCC#N,-4.72
4,CCOc1ccc2nc(NC(=O)Nc3cn(C)c(=O)c4ccccc34)sc2c1,7.22
5,Cc1ccc(Nc2cc(Br)c3ncnc4c3c2C(=O)c2ccccc2-4)cc1,-2.03
6,O=C(CC(Nc1ccc2ncccc2c1)c1ccccc1)c1ccccc1 (centres unmarked),2.55
7,CCN(CC)CCNC(=O)COc1ccccc1O,-1.54
8,CC(NC(=O)CSc1nc(=O)cc(N)n1-c1ccccc1)c1ccccc1 (centres unmarked),7.16
9,COCCN1C(=O)C(O)=C(C(=O)c2ccc3c(c2)CC(C)O3)C1c1cccc(Oc2ccccc2)c1 (centres unmarked),1.78
10,CCc1cc(CC)c(CO)c(CC)c1/C=N/O,2.46
11,CC(NC(=O)Cn1c(=O)[nH]c2ccsc2c1=O)c1ccccc1 (centres unmarked),2
12,O=C1NC(=O)C(Cc2ccccc2)C(=O)N1,3.32
13,CCc1nc2ccccc2c(NC(=O)CNC(C)(C)CO)c1C,3.81
14,Cc1ccc(S(=O)(=O)N(CC(=O)N2CCc3ccccc3C2)c2cccc(C)c2)cc1,-12.5
15,O=C(NCc1ccco1)c1cc2cc3ccc(Cl)cc3nc2o1,1.9
16,N#CCNC(=O)C(Cc1c(F)cccc1F)NC(=O)OCc1ccccc1 (centres unmarked),2.86
17,Cc1cc(C)c(CN2CCCN(Cc3ccccc3Cl)S2(=O)=O)c(C)c1,-1.41
18,CCc1cc2c(cc3c(=O)n(CC(=O)NC4CCCCCC4)ncn32)s1,3.29
19,CN1CCN(C2CC(=O)N(c3ccc(N4C(=O)CC(N5CCN(C)CC5)C4=O)cc3)C2=O)CC1 (centres unmarked),-1.74
20,O=C(Nc1cccc(F)c1)[C@@H]1C[C@@H]1c1ccccc1,-2.03
21,CCOc1ccc(C(=O)Nc2sc(C)c(CC)c2C(N)=O)cc1,3.53
22,CCOC(=O)/C=C(\C)N1N=C(c2cccs2)CC1c1ccc(F)cc1 (centres unmarked),-0.424
23,Cc1ccc(CNc2ccc3nnc(-c4ccccc4)n3n2)cc1,1.89
24,CCOC(=O)C1=C(CC)OC(N)=C(C#N)C1c1ccc(Br)cc1 (centres unmarked),1.96
25,CCCCn1c(N)c(C#N)c2nc3ccccc3nc21,-0.294
26,COc1ccccc1Nc1nc(-c2ccc(C)cc2)cs1,6.86

row,Structure (SMILES),% Inhibition @ 10 uM [%]
1,O=C(NCCCc1ccccc1)NC1CCCCC1,-0.132
2,Cc1ccc(-c2csc(/C(C#N)=C/c3ccccc3Cl)n2)c(C)c1,0.98
3,COc1ccccc1/C=C1\N=C(SC)SC1=O,2.56
4,CCOC(=O)c1cc(C(C)(C)C)c(O)c(C(C)(C)C)c1,2.17
5,CC(CCc1ccccc1)NC(=O)C(=O)NC1CCCCC1 (centres unmarked),-5.33
6,COc1ccccc1NC(=O)CCCOc1ccc(Cl)cc1C,1.03
7,COc1ccc(-c2nc(N)n(C(=O)c3ccco3)n2)cc1,2.32
8,COc1cc2cc(C(N)=O)c(N)nc2cc1OC,-2.02
9,CN(C)S(=O)(=O)c1cccc(-c2csc(-c3ccccc3)n2)c1,-0.0619
10,Cc1ccc(CNC(=O)c2c(C)nn(-c3ccccc3)c2-n2cccc2)cc1,-3.35
11,O=C(CN1C(=O)c2ccccc2C1=O)Nc1cccc(F)c1,-2.6
12,CCOC(=O)C1CCN(Cc2ccccc2)CC1,-3.56
13,Cc1cc(O)n2nc(NC(=O)CC(C)C)nc2n1,3.66
14,Cc1cc(-c2ccc(C)c(S(=O)(=O)N3CCN(C4CCCCC4)CC3)c2)[nH]n1,1.11
15,Cc1c(C)n(C)c2ccc(C(=O)NCCCN3CCOCC3)cc12,6.03
16,CCOc1ccccc1N(CC(=O)O)S(=O)(=O)c1ccc(C)cc1,-0.0925
17,C=Cc1ccc(CSc2ncc(C(=O)OCC)c(N)n2)cc1,0.776
18,COc1ccc(NC(=O)c2ccc(OC)c(OC)c2)cc1,0.317
19,Cn1cnc([N+](=O)[O-])c1C(=O)NCCCO,-0.424
20,Cc1nc(=O)c(-c2ccccc2)c(C)n1-c1ccc(Cl)cc1Cl,-12.4
21,COc1cccc(S(=O)(=O)NCc2ccc(C(=O)N3CCCCC3)cc2)c1,-3.37
22,COc1ccc(C=C2C(=O)OC(C)(c3ccccc3)OC2=O)c(OC)c1 (centres unmarked),5.06
23,CCNCC(O)COc1cc(C)c(Cl)c(C)c1 (centres unmarked),11
24,CC(=O)N1c2ccccc2C2(O)C1SC1=[N+]2CCCCC1 (centres unmarked),9.94
25,Nc1ccc2oc(-c3ccccc3)nc2c1,-2.35
26,O=C(NCc1ccccc1F)c1nc(CS(=O)(=O)c2ccccc2)no1,-1.05

row,Structure (SMILES),% Inhibition @ 10 uM [%]
1,Cc1nc2c(C(=O)NCc3ccccn3)cnn2c(C)c1Cc1ccccc1Cl,-2.14
2,CC(=O)N(CC(O)COc1cccc2ccccc12)C(C)C (centres unmarked),-2.32
3,COCCNC(=O)C1CC(c2ccc(F)cc2)=NO1 (centres unmarked),1.24
4,COc1ccc(CN2C(=O)C3C4C=CC(C4)C3C2=O)cc1 (centres unmarked),-2.07
5,CN(C)c1ccc(/C=C/CN2CCSCC2)cc1,0.217
6,CCNc1nc(NCC)nc(Oc2ccccc2C(=O)OC)n1,2.26
7,COc1ccc(/C=C/C(=O)NCC2(c3ccccc3)CCCC2)cc1OC,2.3
8,CNC(=S)/N=C(\Nc1ccc(C)cc1)c1ccccc1,-4.06
9,Cc1ccc(-n2ncc(C(=O)Nc3ccccn3)c2C2CCN(C(=O)OC(C)(C)C)CC2)cc1C,6.05
10,CCOC(=O)N1CCN(C(=O)CSc2cn(Cc3ccccc3Cl)c3ccccc23)CC1,-6.85
11,COc1ccc(CN2CCN(Cc3ccccc3)CC2)cc1C,-1.86
12,NC(=O)C1CCCN(CC2CCCCC2)C1 (centres unmarked),-2.24
13,COc1ccc(-c2noc(CN(C(=O)C(C)(C)C)C(C)C)n2)cc1,-5.58
14,Cc1ccc(C(=O)Nc2cc3ccccc3oc2=O)cc1,-4.5
15,CCOc1ccc(-c2oc3cc(Cl)ccc3c(=O)c2O)cc1OCC,-1.17
16,CC(C)OCCCNC(=O)CN1N=C(c2ccccc2)CCC1=O,2.18
17,N#CCNC(=O)[C@H](Cc1ccc(OCc2ccccc2)cc1)NC(=O)OCc1ccccc1,1.71
18,O=C(NCc1ccc(F)cc1)N1CCC(CN2CCOCC2)CC1,3.24
19,CCOc1cccc(C2C(C(=O)c3ccc(F)cc3)=C(O)C(=O)N2Cc2cccnc2)c1 (centres unmarked),-4.39
20,CC(C)CNCC1COc2ccccc2O1 (centres unmarked),-1.69
21,O=S(=O)(NCCSCc1ccccc1Cl)c1ccc(Br)s1,5.64
22,Cc1nc(O)c2c(n1)OC(N)=C(C#N)C2c1cccc(F)c1 (centres unmarked),-2.54
23,O=C(CCc1nnc2n(Cc3ccc(Cl)cc3)c(=O)c3ccccc3n12)NCCC1=CCCCC1,4.16
24,Cc1ccccc1C(=O)c1cccn1CC(=O)NCCN1CCOCC1,-7.8
25,C=C(C)CNC(=S)N1CCN(C(c2ccccc2)c2ccccc2)CC1,-5.41
26,O=C1CC(NCC2CCCO2)C(=O)N1c1ccc(F)cc1 (centres unmarked),2.84

row,Structure (SMILES),% Inhibition @ 10 uM [%]
1,CCC(C)(C)/N=c1/c(-c2ccccc2)c(O)c1=O,2.51
2,COc1ccc(CNc2nc3c(S(=O)(=O)c4ccc(C)cc4C)nnn3c3ccccc23)cc1,-3.08
3,Cc1cc(S(=O)(=O)N2CCOCC2)ccc1/N=C/c1c(C)nn(-c2ccc(Cl)cc2)c1O,-0.413
4,CCOC(=O)N1CCN(C(=O)CSc2nnc(-c3ccc(C(C)(C)C)cc3)o2)CC1,-2.19
5,COc1cc(C(=O)Nc2ccc(S(=O)(=O)Nc3ccc(F)cc3)cc2)cc(OC)c1OC,2.93
6,CC(Cc1ccccc1)NC(=O)c1ccc(N)cc1 (centres unmarked),-0.0494
7,CCc1ccc(/C=C2\C(=O)NC(C)=C2C(=O)OC)cc1,0.222
8,O=C(O)CC1C(=O)N=C2C=CC=CN21 (centres unmarked),1.18
9,CC1CCCCN1C(=O)Nc1noc2c1COc1ccccc1-2 (centres unmarked),-1.4
10,Cc1cc(C(F)F)nc2sc(C(=O)Nc3ccc(F)c(Cl)c3)c(N)c12,17.4
11,Fc1ccc(OCCSc2nc3ccccc3o2)cc1,6.79
12,O=C1OC(C2CCCCC2)=N/C1=C\c1cccc(Br)c1,6.86
13,Cc1ccc(-c2cc(=O)c3ccccc3o2)s1,-4.43
14,CC(C)CNC(=O)c1ccccc1NC(=O)c1ccc(N(C)S(C)(=O)=O)cc1,6.61
15,Cc1[nH]c2ccc(CN)cc2c1C,-1.47
16,CCOC(=O)c1c(C)[nH]c(C)c1S(=O)(=O)N1CCC(C(=O)N2CC=C(c3ccccc3)CC2)CC1,-4.36
17,CC1(C(=O)O)CCC(C(=O)Nc2ccc(F)cc2)C1(C)C (centres unmarked),-5.96
18,CC1(OC(=O)C(F)(F)F)CCC(CC(NC(=O)c2ccccc2)C(=O)NCC#N)CC1 (centres unmarked),-5.21
19,CCC(C)Nc1oc(/C=C/c2cccc(OC)c2)nc1C#N (centres unmarked),-6.29
20,O=C(CN(c1ccc(F)cc1)S(=O)(=O)c1ccc2c(c1)OCCO2)Nc1ccccc1F,5.17
21,Cc1ccc(Cn2cc(CCC(=O)NC(C)C)c3ccccc32)cc1,-1.97
22,CC(C)CC(NC(=O)c1cccc(O)c1)C(=O)NCC#N (centres unmarked),0.744
23,CCCCN(C)C(=O)Cn1ncc2c1-c1cc(C)ccc1OC2,-4.01
24,COc1cc(NS(=O)(=O)c2ccccc2)c(OC)cc1N,-1.38
25,OC12CC3CC(C1)C(Nc1ccccc1)C(C3)C2 (centres unmarked),-0.582
26,CC(C)c1c(Cl)c(O)c(-c2ccccc2)c(=O)n1-c1ccc(F)cc1,0.674
